Molecules are shown by their SMILES. In brackets after ≈: the same amount, converted by molar mass. Read-outs that look alike come from different tables or passages of the source.

Series [1] can be described thus: ChromlogD assay. As for the experimental part: The Chromatographic Hydrophobicity Index (CHI)[22] values were measured using reversed phase HPLC column (Luna C18 (2), Phenomenex, UK) with a fast acetonitrile gradient at starting mobile phase of pH = 7.4. CHI values are derived directly from the gradient retention times by using a calibration line obtained for standard compounds. The CHI value approximates to the volume % organic concentration when the compound elutes. […] The average error of the assay is ±3 CHI unit or ±0.25 ChromlogD.

The test system of series [2] is T. brucei brucei parasites (Lister 427 strain). The series is described as follows: Dose response growth inhibition assay (resazurin, 72 h). The series is classed as cell-based. The settings on record: Trypanosoma brucei; T. b. brucei growth inhibition; read-out: Tbb pEC50 (converted). As for the experimental part:
Greiner sterile black clear bottom 384-well assay plates were pre-dispensing with 200 nL of compound in each well, from master plates at 1 mM (100% DMSO) containing selection from the GSK compound collection. Controls of 0% response (control 1, 200 nL of 100%DMSO) and 100% response (control 2, 200 nL of 1 mM pentamidine) were included in each assay plate in columns 6 and 18, respectively. Plates containing 200 nL of 100% DMSO were included randomly in the assay, to assess quality through all process. […] After this period, 10 µL of 200 µM resazurin solution in prewarmed HMI-9 were added to each well, and plates were allowed to incubate 2 hours more prior fluorescence reading in a Wallac EnVision Multilabel Plate Reader (Perkin-Elmer). Raw fluorescent data from the Envision plate reader were uploaded into GSK HTS database (ActivityBase). Activity of each well was normalized as a percentage of inhibition per-plate basis using the following equation: [drawing 1]
For dose-response experiments, serial compound dilutions of selected hits from the primary campaign were plotted against compound concentration. Dose response master plates were prepared by 3-fold dilutions (starting with 10 mM DMSO stock solutions), providing 11 concentrations. From these master plates, 200 nL per well was stamped in final assay plates, including the same controls describe in the primary single shot assay. Compounds were dispensed as serial dilution curve format, with 11 points at 3-fold dilution and 40 µM as starting top concentration (n = 2). Growth inhibition assay was performed as described in previous assay.
A 4-parameter equation describing a sigmoidal dose-response curve was then fitted with an adjustable baseline using ActivityBase XE Runner software. Fitting of dose-response curves and EC50 determination were normalized as percentage of inhibition based on controls. The curve-fit model was based on a 4-parameter equation: [drawing 2]
Trypanosome cell culture. […]

Series [3] can be described thus: CLND kinetic solubility assay. The series is classed as physicochemical. To be noted: phosphate buffered saline, pH 7.4, aqueous buffer, kinetic from dmso stock; Measured; read-out: Aq Sol. As for the experimental part: 5 µL of 10 mM DMSO stock solution was diluted to 100 µL with pH 7.4 phosphate buffered saline, equilibrated for 1 hour at room temperature, filtered through Millipore MultiscreenHTS-PCF filter plates (MSSL BPC). The filtrate was quantified by suitably calibrated flow injection Chemi-Luminescent Nitrogen Detection.

Series [4] concerns the target Cytochrome P450 (CYP450) (Homo sapiens, UniProt P08684). The series is described as follows: Cytochrome P450 inhibition profile. To be noted: Measured. The series is classed as in vitro ADME. The procedure: The P450 inhibition profile of the inhibitors was determined as previously described.
Series [5] concerns the target T1, Human Serum Albumin (HSA) (Homo sapiens, UniProt P02768).
T1 construct: purchased Chiral Technologies, France
The series is described as follows: Protein binding assay (HPLC stationary phase), HSA. To be noted: Measured. The series is classed as in vitro ADME. The procedure: Chemically bonded Human Serum Albumin (HSA) and Alpha-1-acidglycoprotein HPLC stationary phases (Chiral Technologies, France) were used for measuring compounds' binding to plasma proteins, applying linear gradient elution up to 30% iso-propanol. The run time was 6 min, including the re-equilibration of the stationary phases with the 50 mM pH7.4 ammonium acetate buffer. The obtained gradient retention times were standardised using a calibration set of mixtures as described in the references. The average standard error of the assay depends on the binding strength and kinetics of the compounds.

In series [1], `FC(F)(F)CNc1nc(Nc2ccsc2)nc2[nH]cnc12` [NEU-0001106] displayed a PFI of 6.95.
`Nc1nc(Nc2cccc(S(N)(=O)=O)c2)nc2c1cnn2C1CCC1` [NEU-0001107] showed a PFI in series [1] of 4.53.
`Nc1ncc(-c2cccnc2)c2scc(-c3ccc4cn[nH]c4c3)c12` [NEU-0001220]: the EC50 in series [2] is 251 nM. Besides, in series [3], the solubility kinetic at 1 h is 33 µM (≈ 11.3 µg/mL). Besides, in series [1], the PFI is 8.64. The IC50 is 501 nM in series [4] (CYP3A4, VG substrate, read-out: CYP3A4VG pXC50 (converted)) and 31.6 nM in series [4] (CYP3A4, VR substrate, read-out: CYP3A4VR pXC50 (converted)).
Take `CNC(=O)Nc1sc(-c2cccc(F)c2)cc1C(N)=O` [NEU-0001221]: the EC50 in series [2] was 1000 nM. Further, in series [3], the solubility kinetic at 1 h stood at 232 µM (≈ 68.1 µg/mL). In addition, the PFI in series [1] is on record as 5.71.
For `NC(=O)c1cnc2cc(-c3nccs3)ccc2c1Nc1ccc2cn[nH]c2c1` [NEU-0001223], the EC50 in series [2] was 100 nM. The molecule further had a PFI in series [1] of 8.35.
`Cc1[nH]nc(Nc2ccnc3[nH]ccc23)c1C` [NEU-0001225] displayed an HSA % binding in series [5] of 84.7%.

Source of the values: PMC4207660, “Identification and Characterization of Hundreds of Potent and Selective Inhibitors of Trypanosoma brucei Growth from a Kinase-Targeted Library Screening Campaign” (PLoS Neglected Tropical Diseases, 2014).
